Experimental data as given in patent US20230250147A1, “GLP-1R AGONISTIC PEPTIDES WITH REDUCED ACTIVITY” (SANOFI, priority 2020, published 2023).

B1: 106 (protein)
chain: HGEGTFTSDKSQLLEERLAHLFIEWLIAGGHSSGRPPPKGGGGGGGSGGGGSGGGGSA[… human IgG4 Fc with changes …]GGGSGSAHPIPDSSPLLQFGGQVRQRYLYTDDACQTEAHLEIREDGTVGGAADQSPESLLQLKALKPGVIQILGVKTSRFLCQRPDGALYGSLHFDPEACSFRELLLEDGYNVYQSEAHGLPLHLPGCKSPHRDPAPRGPARFLPLPGLPPAPPEPPGILAPQPPDVGSSDPLSMVGSQGRSPSYAS
modifications: Fusion Protein
B2: 107 (protein)
chain: YGEGTFTSDKSQLLEERLAHLFIEWLIAGGHSKIRPPPKGGGGGGGSGGGGSGGGGSA[… human IgG4 Fc with changes …]GGGSGSAHPIPDSSPLLQFGGQVRQRYLYTDDACQTEAHLEIREDGTVGGAADQSPESLLQLKALKPGVIQILGVKTSRFLCQRPDGALYGSLHFDPEACSFRELLLEDGYNVYQSEAHGLPLHLPGCKSPHRDPAPRGPARFLPLPGLPPAPPEPPGILAPQPPDVGSSDPLSMVGSQGRSPSYAS
modifications: Fusion Protein
B3: 108 (protein)
chain: YGEGTFTSDKSQLLEERLVHLFIEWLIAGGHSKIKPPPKGGGGGGGSGGGGSGGGGSA[… human IgG4 Fc with changes …]GGGSGSAHPIPDSSPLLQFGGQVRQRYLYTDDACQTEAHLEIREDGTVGGAADQSPESLLQLKALKPGVIQILGVKTSRFLCQRPDGALYGSLHFDPEACSFRELLLEDGYNVYQSEAHGLPLHLPGCKSPHRDPAPRGPARFLPLPGLPPAPPEPPGILAPQPPDVGSSDPLSMVGSQGRSPSYAS
modifications: Fusion Protein
B4: 109 (protein)
chain: YGEGTFTSDKSQLLEKELAHLFIEWLIAGGHKSGRPSPKGGGGGGGSGGGGSGGGGSA[… human IgG4 Fc with changes …]GGGSGSAHPIPDSSPLLQFGGQVRQRYLYTDDACQTEAHLEIREDGTVGGAADQSPESLLQLKALKPGVIQILGVKTSRFLCQRPDGALYGSLHFDPEACSFRELLLEDGYNVYQSEAHGLPLHLPGCKSPHRDPAPRGPARFLPLPGLPPAPPEPPGILAPQPPDVGSSDPLSMVGSQGRSPSYAS
modifications: Fusion Protein
B5: 112 (protein)
chain: HGEGTFTSDKSQLLEKRLAHLFIEWLLAGGPSSGRPPPKGGGGGGGSGGGGSGGGGSA[… human IgG4 Fc with changes …]GGGSGSAHPIPDSSPLLQFGGQVRQRYLYTDDACQTEAHLEIREDGTVGGAADQSPESLLQLKALKPGVIQILGVKTSRFLCQRPDGALYGSLHFDPEACSFRELLLEDGYNVYQSEAHGLPLHLPGCKSPHRDPAPRGPARFLPLPGLPPAPPEPPGILAPQPPDVGSSDPLSMVGSQGRSPSYAS
modifications: Fusion protein
B6: 113 (protein)
chain: YGEGTFTSDKSQLLEKRLAHLFIEWLIKGGHSSIRPPPKGGGGGGGSGGGGSGGGGSA[… human IgG4 Fc with changes …]GGGSGSAHPIPDSSPLLQFGGQVRQRYLYTDDACQTEAHLEIREDGTVGGAADQSPESLLQLKALKPGVIQILGVKTSRFLCQRPDGALYGSLHFDPEACSFRELLLEDGYNVYQSEAHGLPLHLPGCKSPHRDPAPRGPARFLPLPGLPPAPPEPPGILAPQPPDVGSSDPLSMVGSQGRSPSYAS
modifications: Fusion Protein
B7: 115 (protein)
chain: YGEGTFTSDKSQLLEKRLAHLFIEWLIKGGHSSIKPPPKGGGGGGGSGGGGSGGGGSA[… human IgG4 Fc with changes …]GGGSGSAHPIPDSSPLLQFGGQVRQRYLYTDDACQTEAHLEIREDGTVGGAADQSPESLLQLKALKPGVIQILGVKTSRFLCQRPDGALYGSLHFDPEACSFRELLLEDGYNVYQSEAHGLPLHLPGCKSPHRDPAPRGPARFLPLPGLPPAPPEPPGILAPQPPDVGSSDPLSMVGSQGRSPSYAS
modifications: Fusion Protein
B8: 116 (protein)
chain: HGEGTFTSDKSQLLEKRLAHLFIEWLIAGGPSKGKPPPKGGGGGGGSGGGGSGGGGSA[… human IgG4 Fc with changes …]GGGSGSAHPIPDSSPLLQFGGQVRQRYLYTDDACQTEAHLEIREDGTVGGAADQSPESLLQLKALKPGVIQILGVKTSRFLCQRPDGALYGSLHFDPEACSFRELLLEDGYNVYQSEAHGLPLHLPGCKSPHRDPAPRGPARFLPLPGLPPAPPEPPGILAPQPPDVGSSDPLSMVGSQGRSPSYAS
modifications: Fusion Protein
B9: 118 (protein)
chain: HGEGTFTSDKSQLLEKRLAHLFIEWLIAGGHSKIKYPPKGGGGGGGSGGGGSGGGGSA[… human IgG4 Fc with changes …]GGGSGSAHPIPDSSPLLQFGGQVRQRYLYTDDACQTEAHLEIREDGTVGGAADQSPESLLQLKALKPGVIQILGVKTSRFLCQRPDGALYGSLHFDPEACSFRELLLEDGYNVYQSEAHGLPLHLPGCKSPHRDPAPRGPARFLPLPGLPPAPPEPPGILAPQPPDVGSSDPLSMVGSQGRSPSYAS
modifications: Fusion Protein
B10: 121 (protein)
chain: HGEGTFTSDKSQLLEKRLAHLFIEWLIAGGPSSGRYPPKGGGGGGGSGGGGSGGGGSA[… human IgG4 Fc with changes …]GGGSGSAHPIPDSSPLLQFGGQVRQRYLYTDDACQTEAHLEIREDGTVGGAADQSPESLLQLKALKPGVIQILGVKTSRFLCQRPDGALYGSLHFDPEACSFRELLLEDGYNVYQSEAHGLPLHLPGCKSPHRDPAPRGPARFLPLPGLPPAPPEPPGILAPQPPDVGSSDPLSMVGSQGRSPSYAS
modifications: Fusion Protein
B11: 122 (protein)
chain: HGEGTFTSDKSQLLEKRLAHLFIEWLIAGGHSSIKPPPKGGGGGGGSGGGGSGGGGSA[… human IgG4 Fc with changes …]GGGSGSAHPIPDSSPLLQFGGQVRQRYLYTDDACQTEAHLEIREDGTVGGAADQSPESLLQLKALKPGVIQILGVKTSRFLCQRPDGALYGSLHFDPEACSFRELLLEDGYNVYQSEAHGLPLHLPGCKSPHRDPAPRGPARFLPLPGLPPAPPEPPGILAPQPPDVGSSDPLSMVGSQGRSPSYAS
modifications: Fusion Protein
B12: 123 (protein)
chain: HGEGTFTSDKSKLLEKRLAHLFIEWLIKGGHSSIKPPPKGGGGGGGSGGGGSGGGGSA[… human IgG4 Fc with changes …]GGGSGSAHPIPDSSPLLQFGGQVRQRYLYTDDACQTEAHLEIREDGTVGGAADQSPESLLQLKALKPGVIQILGVKTSRFLCQRPDGALYGSLHFDPEACSFRELLLEDGYNVYQSEAHGLPLHLPGCKSPHRDPAPRGPARFLPLPGLPPAPPEPPGILAPQPPDVGSSDPLSMVGSQGRSPSYAS
modifications: Fusion Protein

These molecules were tested against T1, Human GLP-1R (Homo sapiens, UniProt P43220) (assay: HTRF cAMP assay in HEK-293 cells, human GLP-1R).
T1 construct: expressed in transfected cells; host or cells: HEK-293
T1 sequence (P43220 24-463): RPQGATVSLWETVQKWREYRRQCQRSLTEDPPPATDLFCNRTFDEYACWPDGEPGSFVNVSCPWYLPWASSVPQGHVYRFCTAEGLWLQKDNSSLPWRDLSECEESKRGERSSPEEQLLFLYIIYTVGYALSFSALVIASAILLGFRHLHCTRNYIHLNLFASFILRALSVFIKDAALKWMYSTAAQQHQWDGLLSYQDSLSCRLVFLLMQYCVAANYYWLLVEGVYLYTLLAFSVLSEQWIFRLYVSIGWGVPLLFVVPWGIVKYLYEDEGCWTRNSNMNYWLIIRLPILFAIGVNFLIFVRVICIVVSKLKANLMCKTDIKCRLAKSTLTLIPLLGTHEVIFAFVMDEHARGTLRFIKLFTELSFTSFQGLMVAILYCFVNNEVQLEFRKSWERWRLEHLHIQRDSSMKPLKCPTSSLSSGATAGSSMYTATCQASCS
Type: cell-based
In the case of B1, the EC50 is reported as 0.00966 nM. Molecule B2 has an EC50 of 0.186 nM. For B3, the EC50 was 0.326 nM. Molecule B4 has an EC50 of 0.278 nM. B5 showed an EC50 of 0.00723 nM. For B6, the EC50 was 0.159 nM. Molecule B7 has an EC50 of 0.0922 nM. With B8 the EC50 was 0.0106 nM. Work on B9 yielded an EC50 of 0.0183 nM. With B10 the EC50 was 0.0119 nM. For B11, the EC50 was 0.0145 nM. For B12, the EC50 was 0.0127 nM.
